Reference: article PMC12040169 (PLOS Biology, 2025)
Some of the results follow.

tested on: T1, C. trachomatis L2/434/Bu expressing GFP (CTL2-GFP); parameters: species or system HeLa; C. trachomatis total inclusion area by high-content imaging, normalised to DMSO; details: total inclusion area; 28.5 h, 10 µM; inhibitor
T1 construct: L2/434/Bu GFP intracellular growth in HeLa cells
Procedure, shortened: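 Imaging read-out: GFP inclusions and Hoechst nuclei captured by high-content imaging after fixation. Inclusion area/number = chlamydial growth; nuclei count = host cell viability. MIC calculated per earlier method.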

Going from `CC1CN(c2cc(CO)c(F)cn2)CC2(CCOCC2)O1` (stereo not drawn) [CBK304773] to `CCC(C)NC(=O)C1(Cc2ccc(-c3cc(F)ccc3OC)cc2)CCOCC1` (stereo not drawn) [CBK285539], the “% of control remaining” value rises from 33.276 to 116.885.

Compared with `COc1ccc(N2C(=O)CC(Sc3ncccc3C(=O)O)C2=O)cc1` (stereo not drawn) [CBK263387], `COc1ccc(CSc2nnc(-c3ccco3)n2N)cc1` [CBK267548] is lower in “% of control remaining” value: 103.05 for the first, 99.8932 for the second.

First: COC(=O)COc1ccccc1/C=C1\SC(c2ccc(C)cc2)=NC1=O [CBK067741]
Second: O=C(O)COc1ccccc1/C=N/NC(=O)Cc1ccc(Br)c2ccccc12 [CBK263116]
The “% of control remaining” value of the first is higher: 101.133 for the first, 83.0488 for the second.

Compared with `Cc1cc(C)c2nc(-c3ccccn3)cc(C(=O)Nc3cccc(Cn4cccn4)c3)c2c1` [CBK267723], `COc1cccc(NC(=O)CSc2nnc(-c3ccccc3O)n2-c2ccccc2)c1` [CBK268343] is lower in “% of control remaining” value: 99.2074 for the first, 86.8894 for the second.

Compared with `CNC(=O)c1ccc(-c2ccc(N3CCOCC3)cc2)nc1NCC1CC1` [CBK106305], `CNC(=O)c1cccc(NC(=O)c2ccc(C)nc2N2CCOCC2)c1` [CBK106223] is higher in “% of control remaining” value: 93.8945 for the first, 94.9693 for the second.

First: CC(=O)c1csc(NC(=O)Cn2ccc3ccc(F)cc32)n1 [CBK282572]
Second: Cc1csc2ncc(C(=O)Nc3ccccc3F)c(=O)n12 [CBK287455]
The “% of control remaining” value of the first is lower: 86.3958 for the first, 88.1471 for the second.

First: O=C(c1ccccc1F)N1CCC(c2n[nH]c3ncccc23)CC1 [CBK284903]
Second: O=C(c1cnccn1)N1CCN(CCc2ccccc2)CC1 [CBK200224]
The “% of control remaining” value of the first is higher: 101.948 for the first, 92.8363 for the second.

First: CCN1CCN(C(=O)c2ccccc2N(Cc2ccccc2)S(C)(=O)=O)CC1 [CBK267028]
Second: Cc1cnc2c(C(=O)N3CC(C(=O)N4CCN(c5ccccc5)CC4)C3)cnn2c1 [CBK285641]
The “% of control remaining” value of the first is higher: 103.269 for the first, 103.267 for the second.

First: CC(C)Oc1cccc(C(=O)Nc2ccc(N3CCN(C)CC3)cc2)c1 [CBK266090]
Second: COc1ccc(CNC(=O)N2CCN(c3ccccc3OC)CC2)cc1OC [CBK155609]
The “% of control remaining” value of the first is lower: 84.033 for the first, 102.167 for the second.

Compared with `COc1ccc(S(=O)(=O)Nc2sccc2C#N)cc1` [CBK034732], `Cc1ccnc(NS(=O)(=O)c2ccc(NC(=O)CSc3ccc(Cl)cc3)cc2)n1` [CBK265854] is higher in “% of control remaining” value: 99.2554 for the first, 103.867 for the second.

Compared with `O=C(O)c1cc2nc3c(c(C(F)(F)F)n2n1)CCc1ccccc1-3` [CBK263025], `O=C(O)CCC1=C2c3ccccc3CCN2C(=O)CC1` [CBK286945] is higher in “% of control remaining” value: 94.66 for the first, 95.9115 for the second.

Compared with `NC(=O)CN1CCC(Oc2cncc(OCCN3CCOCC3)n2)C1` (stereo not drawn) [CBK084488], `O=C(NCCN1CCOCC1)C1CCCN(c2nc3c(-c4ccccc4)csc3c(=O)[nH]2)C1` (stereo not drawn) [CBK215509] is higher in “% of control remaining” value: 90.0042 for the first, 99.1094 for the second.

Compared with `CSc1ncnc2c1CC=N2` [CBK007532], `Nc1ncnc2sc3c(c12)CCC3` [CBK097952] is lower in “% of control remaining” value: 88.9347 for the first, 65.5822 for the second.

Compared with `CC1CCN(S(=O)(=O)c2ccc(NC(=O)COc3ccc4ccccc4c3)cc2)CC1` [CBK264969], `CC(Sc1ccc(Cl)cc1)C(=O)Nc1ccc(S(=O)(=O)Nc2ccc(Cl)cc2)cc1` (stereo not drawn) [CBK264805] is lower in “% of control remaining” value: 109.05 for the first, 64.4314 for the second.

Going from `Cc1ccc(CSCc2nc3ccccc3[nH]2)cc1` [CBK265238] to `Cc1ccc2nc(NCC(=O)O)nc(-c3ccccc3)c2c1` [CBK287002], the “% of control remaining” value falls from 84.8428 to 75.7163.

Going from `COCc1nc(NCCCn2c(C)cccc2=O)cc([C@H]2C[C@H](N)C2)n1` [CBK307337] to `CC(CNc1cc(=O)n2ccccc2n1)CN1CCCC1` (stereo not drawn) [CBK305270], the “% of control remaining” value rises from 61.5693 to 70.2347.

Compared with `O=C(c1cnoc1-c1ccc(F)cc1)N1CCCC1` [CBK153707], `O=c1c2sc(-c3ccc(F)cc3)cc2ncn1CC1(O)CCCNC1` (stereo not drawn) [CBK306525] is lower in “% of control remaining” value: 97.9227 for the first, 13.2954 for the second.

Compared with `CC(C)(CO)CNc1cncc(-c2cccc(C(F)(F)F)c2)n1` [CBK065248], `Cn1c(Cc2ccc(Cl)cc2)nnc1SCc1nc2ccccc2c(=O)n1-c1cccc(C(F)(F)F)c1` [CBK268425] is higher in “% of control remaining” value: 81.1346 for the first, 87.1833 for the second.

Compared with `CC(=O)N1CCC(C(=O)NC(=O)NC2CCCCC2)CC1` [CBK034847], `CC(=O)NCCN1CC[C@H]2CN(C(=O)c3cc(C)on3)CC[C@H]2CC1=O` [CBK288785] is lower in “% of control remaining” value: 98.4762 for the first, 90.8659 for the second.

Going from `Cc1ccc(S(=O)(=O)NCCc2nc3ccccc3n2C)s1` [CBK281398] to `CCn1nc(-c2ccc(C)o2)nc1CC1NC(=O)c2ccccc21` (stereo not drawn) [CBK306834], the “% of control remaining” value falls from 106.169 to 80.6956.

First: S=C(NCCc1ccccc1)NCCN1CCOCC1 [CBK264929]
Second: Nc1nc(SCc2ccc(Cl)cc2)nc2sc3c(c12)CCN(Cc1ccccc1)C3 [CBK263724]
The “% of control remaining” value of the first is higher: 105.797 for the first, 56.7001 for the second.

Compared with `Cc1ccccc1NC(=O)c1ccccc1Cl` [CBK116485], `Cc1cc(C)cc(NC(=O)c2ccccc2NS(=O)(=O)c2ccc(F)c(F)c2F)c1` [CBK113886] is higher in “% of control remaining” value: 11.2729 for the first, 84.4128 for the second.

First: CC(=O)Nc1ccc(F)c(NC(=O)NCCC2CCCN2C)c1 (stereo not drawn) [CBK304661]
Second: Cn1ncc2c1CCCC2NC(=O)NCc1ccc(C#N)cc1F (stereo not drawn) [CBK305193]
The “% of control remaining” value of the first is lower: 57.1347 for the first, 83.1865 for the second.

First: NC(=O)c1cn[nH]c1C1CCCCN1Cc1cccc2c1CCOC2 (stereo not drawn) [CBK304745]
Second: N#Cc1ccc(NCc2ccccc2CN2CCCC2CO)cn1 (stereo not drawn) [CBK304077]
The “% of control remaining” value of the first is higher: 87.21 for the first, 34.3887 for the second.

Going from `FC(F)(F)Oc1cccc(OCCOc2nccnc2N2CCNCC2)c1` [CBK014323G] to `CCOc1ncccc1NC(=O)Cc1cccc(OC)c1` [CBK256406], the “% of control remaining” value rises from 93.8025 to 130.693.

Going from `CC(=O)Nc1cccc(-c2cnc(N(C)S(C)(=O)=O)c(C(=O)NCc3ccc4c(c3)CCO4)c2)c1` [CBK076609] to `O=C(/C=C/c1cccc([N+](=O)[O-])c1)NC(=S)Nc1ccc(-c2nc3ncccc3o2)cc1` [CBK264391], the “% of control remaining” value rises from 80.2754 to 104.977.

First: O=C(CSc1nc[nH]n1)Nc1nsc(-c2ccc(Cl)cc2)n1 [CBK267273]
Second: CC1=CC(c2ccc(Cl)cc2)n2nc(NC(=O)CCC(=O)O)nc2N1 (stereo not drawn) [CBK264331]
The “% of control remaining” value of the first is lower: 86.5115 for the first, 114.471 for the second.

Going from `CC(C)CC(=O)NCCn1nc(-c2cccs2)oc1=O` [CBK282342] to `CCc1nn(CC(=O)NC2CC2)c(=O)c2cc3ccsc3n12` [CBK284128], the “% of control remaining” value falls from 103.114 to 87.8128.

Compared with `CCn1cc(C(=O)NC2(c3cccc(OC)c3)CCCC2)cn1` [CBK283750], `COc1ccccc1CC(C)NC(=O)c1ccnn1C(C)C` (stereo not drawn) [CBK282595] is higher in “% of control remaining” value: 76.3004 for the first, 88.6822 for the second.

Compared with `CC1(C)COC(=O)N1C1CCN(C(=O)c2cncc(Br)c2)CC1` [CBK038781], `Cc1noc(C(C)C)c1C(=O)NC1CCCN(c2ccn(C)n2)C1=O` (stereo not drawn) [CBK306356] is lower in “% of control remaining” value: 79.8757 for the first, 44.0018 for the second.

Compared with `Cn1c(SCC(=O)n2c3c(c4ccccc42)CCCC3)nnc1-c1ccco1` [CBK267370], `Cc1nnc(SCc2cc(=O)nc(Nc3nc(C)c4ccccc4n3)[nH]2)s1` [CBK266549] is lower in “% of control remaining” value: 123.241 for the first, 112.552 for the second.

Going from `CCc1ccc(OCC(O)Cn2nnc(-c3ccc(CN4CCC(C)CC4)cc3)n2)cc1` (stereo not drawn) [CBK161437T] to `COc1ccc(C2CCN(CC(=O)NC(C)(C)C)CC2)cc1` [CBK283558], the “% of control remaining” value rises from 36.2335 to 101.344.

Going from `CC(=O)c1cc(C#N)c(SCC(=O)O)nc1C` [CBK270189] to `CC(=O)N[C@@H](CC(C)C)C(=O)Nc1cc(C)nc2ccccc12` [CBK116265], the “% of control remaining” value rises from 101.364 to 103.987.

Compared with `COc1ccc([C@@]23CC[C@@H](NC(=O)Nc4ccc(-c5csnn5)cc4)C[C@@H]2N(C)CC3)cc1OC` [CBK051163T], `COc1cccc(CNc2nccnc2-c2ccsc2)c1OC` [CBK037543] is lower in “% of control remaining” value: 94.3869 for the first, 62.4317 for the second.

First: Cc1ccn(CCNC(=O)Cc2coc3cc(C)c(C)cc23)n1 [CBK282578]
Second: Cc1cc(C)c2c(OCC(=O)NC(C)C)nn(C)c2n1 [CBK306393]
The “% of control remaining” value of the first is lower: 78.4044 for the first, 78.7623 for the second.

Compared with `Nc1cc2cccnc2nc1-c1cc(F)cc(F)c1` [CBK067604], `Oc1nccc(Oc2ccnc(Cl)n2)n1` [CBK000010] is higher in “% of control remaining” value: 95.8398 for the first, 97.7483 for the second.

Compared with `Cc1ccc(S(=O)(=O)N2CC[C@@H]3C[C@H](NC(=O)C4CC4C)[C@@H]32)cc1` (stereo partly drawn) [CBK284968], `CN1CCN(CC2(CNC(=O)c3ccc(C(=O)O)cc3)CC2)CC1` [CBK307517] is lower in “% of control remaining” value: 87.4601 for the first, 67.1963 for the second.

Going from `O=C(c1n[nH]c2c1CCCC2)N1CCc2ncc(Cl)cc2C1` [CBK284975] to `CC(C)N1CCC[C@H]1c1nc(-c2ccc(N3CCN(C)CC3)nc2)no1` [CBK288881], the “% of control remaining” value rises from 113.447 to 123.126.

First: CN(Cc1ccsc1)C(=O)c1cccc(S(=O)(=O)NC(C)(C)C)c1 [CBK305425]
Second: CN(C)C(=O)C1CN(C(=O)C(C)(C)c2ccccc2F)C1 [CBK281970]
The “% of control remaining” value of the first is lower: 46.7523 for the first, 103.715 for the second.

First: CSCCC(NC=C1C(=O)CC(C)(C)CC1=O)C(=O)O (stereo not drawn) [CBK261311]
Second: CCCc1n[nH]c(=S)n1CC(=O)NCc1ccc(N2CC(C)OC(C)C2)nc1 (stereo not drawn) [CBK297741]
The “% of control remaining” value of the first is lower: 94.4096 for the first, 97.4822 for the second.

`COc1ccc2[nH]cc(CCNC(=O)COc3ccc(O)cc3)c2c1` [CBK116227] was tested, and the “% of control remaining” value was 101.099.
